Data from the supplement of paper PMC12217912.
The other results are listed elsewhere or left out. The full chains were built here from the parent and the listed change. Inactive controls read about 0.05.

B1: TEV protease; numbered along this chain (parent)
chain: MGESLFKGPRDYNPISSSICHLTNESDGHTTSLYGIGFGPFIITNKHLFRRNNGTLVVQSLHGVFKVKDTTTLQQHLVDGRDMIIIRMPKDFPPFPQKLKFREPQREERICLVTTNFQTKSMSSMVSDTSCTFPSGDGIFWKHWIQTKDGQCGSPLVSTRDGFIVGIHSASNFTNTNNYFTSVPKNFMELLTNQEAQQWVSGWRLNADSVLWGGHKVFMVKPEEPFQPVKEATQL

Variants of: B1
Assay: raw area under fraction-flipped curve 0-4 h after induction (AUC4h, not background-subtracted), DNA-recorder readout of cleavage of the substrate (dimensionless); higher = more cleavage of the substrate by the protease variant
Settings: temperature: 34 °C; time window: 0-4 h after rhamnose induction
Protocol: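 In vivo DNA recorder in E. coli TOP10(DE3) ΔrhaA at 34 °C. Each TEVp single-site mutant (parent TEVp 0) is paired with a single-site variant of the 7-mer TEVs (canonical ENLYFQ|S). The substrate sits between flexible linkers in a Bxb1-sfGFP-TEVs-SsrA fusion, so cleavage stabilises Bxb1 and speeds flipping of a recombination array, read by NGS. The value is the raw area under the fraction-flipped curve over 0-4 h after rhamnose induction (AUC4h), with ≥20 reads per time point. It is not background-subtracted; inactive controls average about 0.047.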
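Also: Bxb1 expression induced with 0.2% (w/v) L-rhamnose at OD600 near 0.5, cultures sampled hourly, flipped fraction per protease–substrate barcode pair counted by paired-end Illumina sequencing.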

| Variant | area with substrate ENLYFAS | area with substrate ENLYFDS | area with substrate ENLYFES | area with substrate ENLYFFS | area with substrate ENLYFIS | area with substrate ENLYFPS | area with substrate ENLYFRS | area with substrate ENLYFTS | area with substrate ENLYFVS | area with substrate ENLYFCS | area with substrate ENLYFGS | area with substrate ENLYFKS | area with substrate ENLYFLS | area with substrate ENLYFMS | area with substrate ENLYFNS | area with substrate ENLYFSS | area with substrate ENLYFWS | area with substrate ENLYFYS | area with substrate ENLYFHS |
| --- | --- | --- | --- | --- | --- | --- | --- | --- | --- | --- | --- | --- | --- | --- | --- | --- | --- | --- | --- |
| P89F | 0.0506 | 0.0441 | 0.0672 | 0.103 | 0.052 | 0.051 | 0.0613 | 0.0643 | 0.0457 | – | – | – | – | – | – | – | – | – | – |
| R51C | 0.0609 | – | 0.0605 | 0.0706 | 0.0582 | 0.0704 | – | 0.0515 | – | 0.0609 | 0.0675 | 0.0544 | 0.0506 | 0.0712 | 0.068 | 0.0619 | 0.06 | 0.0491 | – |
| D69H | 0.0503 | 0.0463 | 0.0546 | 0.0697 | 0.057 | 0.0528 | 0.0635 | 0.0606 | 0.0661 | 0.0584 | – | – | 0.0549 | 0.0673 | 0.0618 | 0.0671 | 0.05 | – | – |
| D69Q | 0.0504 | 0.064 | 0.0643 | 0.0714 | 0.0559 | 0.0585 | – | 0.0596 | 0.0723 | – | 0.0535 | 0.0587 | 0.0458 | 0.0563 | – | 0.0605 | 0.0609 | 0.0691 | – |
| K98Q | 0.0553 | 0.0401 | 0.0689 | – | 0.0647 | 0.0616 | – | 0.0454 | – | – | 0.0507 | – | – | 0.0674 | 0.0693 | – | – | 0.0509 | 0.0537 |
| F65E | 0.0585 | 0.0438 | 0.0557 | 0.0614 | 0.0598 | 0.0537 | 0.0606 | 0.0513 | 0.0645 | – | 0.0681 | 0.0583 | 0.052 | 0.0628 | 0.0304 | – | 0.063 | 0.0772 | 0.0467 |
| F65R | 0.0502 | – | – | 0.0651 | 0.0537 | 0.0521 | – | 0.0454 | – | 0.0613 | 0.065 | 0.0573 | – | 0.062 | 0.0668 | 0.0781 | 0.0703 | 0.0546 | 0.0587 |
| G80H | 0.0668 | – | 0.0602 | – | 0.0472 | – | – | – | – | – | 0.0642 | 0.0644 | – | 0.0539 | – | – | 0.0405 | – | 0.068 |
| F95S | 0.0405 | – | 0.068 | 0.0591 | 0.0526 | 0.0577 | 0.0378 | 0.0514 | 0.054 | 0.0595 | – | 0.0527 | 0.0566 | 0.059 | 0.0561 | – | 0.0585 | 0.0499 | 0.0457 |
| F95R | 0.049 | 0.048 | 0.0658 | 0.0459 | 0.0537 | 0.0523 | 0.0741 | 0.0532 | 0.0487 | 0.0509 | 0.0605 | 0.0587 | 0.0514 | 0.0593 | 0.0516 | – | 0.0544 | 0.0482 | 0.0606 |
| V57M | 0.0673 | 0.0573 | 0.0662 | 0.0755 | – | 0.0576 | 0.0722 | 0.0609 | 0.0416 | – | 0.0665 | 0.0252 | – | 0.0609 | 0.0658 | – | – | – | 0.0513 |
| V57K | 0.0716 | – | 0.0619 | 0.0708 | 0.0796 | 0.0574 | 0.061 | – | 0.0668 | 0.0543 | 0.0511 | 0.0633 | – | 0.0625 | – | 0.0579 | 0.0531 | – | – |
| V57Y | 0.0596 | 0.0493 | 0.0518 | 0.0779 | 0.0554 | 0.0564 | 0.0588 | 0.0569 | 0.0628 | 0.0557 | 0.057 | – | – | 0.0617 | 0.0569 | 0.039 | – | 0.0673 | – |
